167 variants from the RNAGym collection of RNA variant scans (doi:10.7554/elife.90254) can be followed below.

The chains are these.
B1: OR4K15 (parent)
chain: GUUAACGGUCAUAGGCCAUGGAAACUAGGAGCACCAUUUCGCUGCCAGUGAAGAAAUGAACAAAGAAAAUCUGGGCCAGGCAGGCAUCAAAAGAAAUAGUCUUGCGCUCAACCAGAAAGUCUGUAAUCAUUUUAAGGGUA

The source gives no read counts; variants with many changes may rest on few reads.

Variants of B1 are the subject of the series. The series can be described thus: self-cleavage, relative activity (ratio to wild type); higher = more cleavage; in vitro, sequencing; the parent is a self-cleaving ribozyme.
With A30G U39C A60G A90G, the self-cleavage was 0.4. With A33U A64U A129G, the self-cleavage was determined as 0.87. Regarding C32U G44U A54G A56G A68G A98G A114C, the self-cleavage stood at 0.04.

Consider A33G A55G A63G A67G, for which the self-cleavage worked out at 1.12.

As for A30U A96G A111G, the self-cleavage was 0. For the variant A33U G58A U108C A117G, the self-cleavage stood at 0.01. In the case of A33G U102A U108C A134G U139A it was 0. The value for A33G A52G U139A was 0.72; that for A33U A60G U87G was 0.25; that for A33U A66U A116C was 0.04. For A33U U38C G53U A60G, the self-cleavage was determined as 0.47.

As to A30G U132C U139C, the self-cleavage turned out to be 1.73. A33G A68G A95G: the self-cleavage worked out at 0.77.

A30U U38C U103C U131C: the self-cleavage worked out at 0.48. For the variant A30G C40A A62U A69G U100C A116U, the self-cleavage is 0.26. For C34U A55G U103C U108C A118G U132C, the self-cleavage came out at 0.

A33G U72A U87C: the self-cleavage came out at 0.2. In the case of A30G U39C C81U it was 0.4; in that of A30G A117G U124C, 1.25; in that of A33G A59G U87C U100C, 1.31. In the case of A30U U37C C77U A94G U103C, the self-cleavage was 1.78.

For A33C U39A U49C A55G A67G A89G A116G, the self-cleavage amounted to 0.89. In the case of A30U A69U A98G U108A it was 0.01; in that of C34U A92U A118G, 1.34. Consider A30U U57A C76U A117G U124A, for which the self-cleavage was found to be 0.05. In the case of G31A G104A A110U it was 0.01; in that of C32U U43C A118G, 2.16.

On to C32A U57G A94G, for which the self-cleavage was 1.4.

For the variant A33G G58U A60G C128U, the self-cleavage came to 0.73. In the case of A33G A69G U139C, the self-cleavage came to 0.98.

With A33G A68C U102C, the self-cleavage is 1.62. With A33G A55G A66G A91U, the self-cleavage was 1.35. In the case of G31A U38C A64G it was 2.3. Consider A33U A47G A54G, for which the self-cleavage was 0.78.

For A30G G83U C85U, the self-cleavage is 0.62. Consider A33G A47G A134U, for which the self-cleavage amounted to 0.89.

On to A33G U57C A135G, for which the self-cleavage was found to be 0.71. As to A33U A63U U124C, the self-cleavage came to 1.63. Turning to A33U U127C A135G, the self-cleavage came to 1.11. As to A30U A94G U132A, the self-cleavage was 0.82. In the case of A33G U70C A92G it was 0.27; in that of A33G U43G A78U A114G, 0.07; in that of A33U C42U A60G A91G A94G, 0.5.

As to A33C G50U A78U, the self-cleavage stood at 0.53. As for G31A A62U A64G, the self-cleavage was determined as 1.21. The value for A33G A54G C105U was 0.19. In the case of G31A U70C A90G it was 0.44; in that of A33G U39G A95G U130C, 0.67; in that of C34U A90G U127C, 0.39. The value for G31C U37C A60G A98U U124C was 1.79; that for A30G U43C A69U was 1.37; that for A30G U39C U131A was 0.93. A30G U37C A134G: the self-cleavage was determined as 1.66. With A33G G41U A86G A91G A95G U108C, the self-cleavage stood at 0.01. In the case of A33G A62G A63G it was 0.3; in that of A30U U43G A67G A117G, 2.88; in that of A33G U38A C45U U70C U102C U131C G138U, 0.71. The value for A33C A47G A126G was 0.88. On to A33G G74A A117G U122C, for which the self-cleavage stood at 0.05. Consider A30G U43C A59G, for which the self-cleavage turned out to be 1.39.

For A30U U57C U72C G80A A82U U133G, the self-cleavage came out at 0.21. Regarding A33G A67G A68G U132C G137C, the self-cleavage was determined as 0.89.

For the variant A33G U39C A56G A60G, the self-cleavage is 0. The value for C32U U37C A51G U127C was 1.83. Take A33G U43C U122C: the self-cleavage was found to be 0. Consider A33G A92G A96U U97C A110U, for which the self-cleavage was 0.58. In the case of A33G A91G A110G it was 0.11; in that of A33U A55G U70C U120C, 0.23. The value for A30G U72C A116U was 0.02. Regarding A33U A92G U132C, the self-cleavage is 0.54. In the case of A30G U70C A95G U122A it was 0.72; in that of A33C A78U A96U A117G, 0.39. The value for A33G C112U U133C was 0.02; that for C32A A51U U124C was 0.77. Consider A33G A96G A114G G119A, for which the self-cleavage turned out to be 0.69.

With A33G U127C A140G, the self-cleavage was determined as 0.56. In the case of C34U A94G A95G A117G, the self-cleavage amounted to 1.85. The value for A30G U49C U70C U87C was 0.27; that for A30U A67U A90G A91U G99A A118G was 0.49. With A30G U37C U38C A82G, the self-cleavage is 0.42. The value for A33G C45A A55G U103C A125G was 0.03; that for A33G U87A A110U was 0.62.

A33G U57C A94G U122A: the self-cleavage amounted to 0.23. The value for A30G A117G A129G was 1.14. A30U C46A A60G A66G A67G: the self-cleavage is 0.73. Take C32A A64G U130C: the self-cleavage turned out to be 0.6. The value for A30G G53A C76G was 0.31; that for A33G A66G A86U U108C A116G was 0. A33G G74C U100A: the self-cleavage came out at 0.01. The value for G31A A91G A94G U132A was 0.75; that for A30U A56G U70C was 0.45; that for A33G A62G G73A was 0.07. Take A33G A52G A54G U100C: the self-cleavage stood at 1.47. For C34A A56G U100C A118G, the self-cleavage worked out at 1.53. In the case of A33G A66G U87C A114U it was 0.03. As to A33G U70C A90G A118G U139C, the self-cleavage came to 0.09. With A30G U38A A135U, the self-cleavage came out at 1.49. In the case of A33G A51U A67G A86G, the self-cleavage came out at 1.17. The value for A30G U70C C88A was 0.64; that for A30G U39A U131C was 1.05. In the case of A30G U87C A91C U108C it was 0.05; in that of A33G U37C A95G U102C, 1.72; in that of A30U U124C A126G, 0.83. Take A30U A82G U102C: the self-cleavage turned out to be 0.95. For the variant A33G A55G U57C A95G A96G, the self-cleavage amounted to 0.97. In the case of C34U A51G A78G A91G A114G U122G it was 0.02. In the case of A30G C35U A114U U122C it was 0.03; in that of A30G U38C A94G U108C, 0.02. The value for C32U U100A U127C U130C U133C was 0.23; that for A33U A55G A110G was 0.22; that for A33G U39C A78U U87C was 0.27. As for A33G A54G U87C A114G, the self-cleavage turned out to be 0.41. G31U U37C A64G A140G: the self-cleavage amounted to 2.51.

Take A33G U70C U100C: the self-cleavage was 0.96. In the case of A30U A63G A68G A95U G137U it was 1.25. In the case of C32U A63U A140U it was 1.15; in that of A33U U43A U130C, 1.23; in that of A33G A94G U132A, 0.47.

As to A33U C85U U122G, the self-cleavage worked out at 1.95. The value for A30G C71U U122G was 0.75; that for C34G A82U U87C was 0.13; that for C32U A62G A67G was 1.26. The value for A33G U102A A117G was 0.54. The value for A30G U37C U100C U108C was 0.02. On to G31C U124C U132C, for which the self-cleavage came to 1.34. For the variant A33G C40U A51G, the self-cleavage was 1.23. In the case of A33G G41U U130C it was 0.41; in that of G31U A67G A110G A117G, 0.21; in that of A30U U70C A86U A140U, 0.99. For the variant A33G A36G A135G, the self-cleavage is 0.44. The value for A30G G50A A51G A117G U132G was 1.53; that for A30G U120C U122C was 0.52. The value for A33G U39A U49C A52G was 0.55; that for A30G U38C A56G was 0.74. Regarding A33G A52U A56G C105U A116U U122C, the self-cleavage was found to be 0.01. The value for A33G C40U A78G was 0.24; that for A30U A60G U108C was 0.03. The value for A33G A52U U102A U120C was 0.1; that for G31C A90G A110U was 1.05. In the case of A33G U38C C40U A55G U122C it was 0.59; in that of C34U A78G G80C, 0.05. Turning to A33G C81U A116G, the self-cleavage is 0.06. A33C U43C A51G A129U: the self-cleavage was determined as 1.37.

For the variant A30G U43A A56G A60U A67G A96G, the self-cleavage was determined as 1.44. Regarding A33G U37C A116G A118U, the self-cleavage is 0.04. The value for A33G U43C U120C was 0.29; that for A33U U87G A140U was 0.77; that for A33U U70G U100C A135U was 1.55.

For A30U A96G U122A, the self-cleavage amounted to 1.9. The value for A33G U120C A135U was 0.39; that for A30G U38A A89G was 1.42.

For C32U U37C U38C U102A U131C, the self-cleavage was found to be 0.32. The value for A30G U49C A69G U70C U131C was 0.26; that for A33U C46A A86G A95U U139C was 0.97. Regarding A33G A69G A86U U130C, the self-cleavage is 0.34. Turning to A33U A36G U57C A60G U102A C109A A126G, the self-cleavage was determined as 0.04.

For A33U A51U A114U, the self-cleavage is 0.03. Consider A33G U37C A86G U100A U102A, for which the self-cleavage came out at 0.1. The value for G31U A68G A140G was 1.98; that for C34U A60G A118G was 0.54; that for C34U A62G A86G U100C A114G was 0.7.

As for G31U U38C A125G, the self-cleavage turned out to be 1.08.

As to A30G U39C A91G A111G, the self-cleavage was 0.04. With A30G U39C U57C U100A, the self-cleavage worked out at 0.12. In the case of A33G U37C A66G A94G A118G it was 0.7. The value for A33G A116U U133C was 0.26; that for A30G G58U A64U G74U was 0.11.
